44 sequences from the supplement of paper PMC11417369 can be followed below.

Some of the results follow.

This assay relates to PfSIP2 AP2 domain 1 (GST-tagged). Description: gcPBM binding intensity (ln(normalized median fluorescence intensity)); higher = stronger DNA binding. The procedure, abridged: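 Probes on an Agilent 4 × 180k array were primer-extended, double-stranded and 36 bp long, taken from intergenic genomic regions, with negative controls added. GST-tagged P. falciparum DNA-binding domains from E. coli, about 25 μg on average, were applied to the array for 1 h in 1× PBS containing 1% milk, 0.2 mg/ml BSA, 0.5% salmon testes DNA and 0.03% Triton X-100. Binding intensity, obtained after Alexa488 anti-GST antibody detection and a 488 nm scan, is the highest Masliner-normalised natural-log median intensity across replicate spots of either probe orientation.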
With “TTTAAAAAAAAAAAAAAAAAAAAAAAAAAAAATTTG [CACACA_negctrl_site1235]”, the “gcPBM binding intensity (ln)” value came to 6.45.
Next, “TAATTATAGGTATACACACACATACATTTACATAAC [CACACA_site7509]”: 7.47; “TTTTATTATTTTTGTTGTACAGTATACTGTATGATT [XGTACX_site5359]”: 7.18.
Then “ATATACTATTATGTGTGTACATAATAATTTATTATA [XGTACX_site3776]”, with 7.17; and “AACAAACACAGACACACACACACACTAATATGATTA [CACACA_site8770]”, with 7.13.
Next, “TCATACATTTTCCTTGCACACATTTATAATTAATGG [CACACA_site4511]”: 9.07.
Take “TTATCACATTATTGCACACACATAAAGAAAAAAATA [CACACA_site2841]”: the “gcPBM binding intensity (ln)” value is 7.66.
Then “AAAGATACTTTCCTCAAACACACAAAACTATACAAC [CACACA_site1475]”, with 7.12; and “AATAAAAAGAAACACACACACACACCCATATATATA [CACACA_site3589]”, with 7.31.
Next, “ATATAAGAACAAAATTGTACATAAATATTTATATAA [XGTACX_site7404]”: 6.99.
Next, “AAAAAAAAGGAAAATAAAAATAAAAAAAAATAATAA [XGTACX_negctrl_site601]”: 6.71; “TGAGAAAAAAAGAATTGTACATATAAAATATAACAA [XGTACX_site3500]”: 6.74; “GAGGATCATCAATTCACACACATAAAAATGAAGTTA [CACACA_site3078]”: 6.81.
For the sequence “CAATTTTCTAATGAAACATGCAAAATAAAATTTTAT [TGCATGCA_site13]”, the “gcPBM binding intensity (ln)” value was 6.78.
Then “TTCTTTTTAATGTCGGTGCAACTCCATAAAAACAAA [GTGCAC_site9488]”, with 10.8; and “CAACGATACAAAAAAGGTACACATATATATATATAT [XGTACX_site8688]”, with 8.98.
Then “TATATAAAATTCTATTGTACATGTTATACGAAAGAA [XGTACX_site5711]”, with 7.58; and “CAAATACATAGACACACACACATATACATATTTATA [CACACA_site7610]”, with 7.11.
Then “TTTATATTTAAATGCATGCACTTTCTATTTTTTTTT [GTGCAC_site9959]”, with 8.4.
As to “TATTTGATAAATTATACACACACAATATATATAAAA [CACACA_site8625]”, the “gcPBM binding intensity (ln)” value was found to be 6.94.
Next, “GAATAAAGGAGAGGCACACATATATATATATATATA [CACACA_site2452]”: 9.61.
In the case of “GACCATGTTAACAAAGCATGCATCTCTATATGTTTA [TGCATGCA_site358]”, the “gcPBM binding intensity (ln)” value worked out at 6.94.
On to “ACATAAAATAAATATACACACATATGTATATATCAT [CACACA_site7424]”, for which the “gcPBM binding intensity (ln)” value was determined as 7.
Then “AAAAAAAAAAGAAAGAGTACTTTTTCAATACATATA [XGTACX_site2468]”, with 7.12; and “TTATTTTATAAATCGAAAACAAACAAAAAAAAGATA [XGTACX_negctrl_site178]”, with 7.16.
In the case of “TTGCTGTATTTATTTTGTACACATTTGGCATTATAT [XGTACX_site3408]”, the “gcPBM binding intensity (ln)” value amounted to 7.17.
Then “AAGAAAAACAATACGTGTACCAAGCATCCTACTAAC [XGTACX_site6628]”, with 6.88; and “TTAATATAATTAAAATGTACTTATTTGTAAACATTA [XGTACX_site6313]”, with 6.78; and “TTTGTAGCACTTAAGAGTACAAAATGTATAAGATTT [XGTACX_site2321]”, with 7.14.
Then “TATATATATATATATTGTACACATTGTGTTTAAATA [XGTACX_site5104]”, with 9.15.
Then “AATAGAATGTAATATACACACATATATTTCTCTTTT [CACACA_site2630]”, with 6.71.
For “TTTTTATTGTTAATTTTAATTTTTTTTTTTTAATGC [CACACA_negctrl_site162]”, the “gcPBM binding intensity (ln)” value was found to be 6.69.
Next, “TTGTAACCTATGCACGCACACAAGAAAAAAACAAAA [CACACA_site3775]”: 7.7.
Next, “TTTCCTTATAAAAATACACACAAACTTTAATTAAAA [CACACA_site7710]”: 6.91; “TATTCCAAATTTACTAGTACATAATCCATCCGATAA [XGTACX_site1558]”: 6.8.
Then “TTTCTTTTTAAATGCTGTACAAAGGGTGACGTTAAA [XGTACX_site4724]”, with 7.35; and “TATTACACATATTATACACACATATATTATAGATAT [CACACA_site6839]”, with 7.17.
In the case of “ATTTTTTATATTTAGTGTACATGTTTTAATTTATAA [XGTACX_site7512]”, the “gcPBM binding intensity (ln)” value is 7.29.
Next, ATAACTTTATTCAGTTTGCACTTTTATAACAAAAGA: 8.39; “CTTATATAATTCGATAGTACATATTTTTATATATAT [XGTACX_site4045]”: 7.06.
Regarding TTTTCTTTTTTTTTTGTGCACATAATATATAATTAT, the “gcPBM binding intensity (ln)” value is 9.91.
As for “ATATTTTTTAGTAAGACGAAATAAATAAATCTTTAT [CACACA_negctrl_site1778]”, the “gcPBM binding intensity (ln)” value was 6.79.
In the case of “TATATATATATAAGCACACAAACAAAAAAAATTATA [CACACA_site3897]”, the “gcPBM binding intensity (ln)” value amounted to 8.
Next, “TTTTTCCTATTTTTAGTGCACATATAAATAAATAAA [GTGCAC_site9821]”: 10.7.
